The values below come from the supplement of paper PMC11417369.

± gives the standard deviation of the averaged measurements. The list shows a part of the results.

In the assay the test system is PfAP2-G AP2 domain (GST-tagged). In words: gcPBM binding intensity (ln(normalized median fluorescence intensity)); higher = stronger DNA binding. An outline of the steps: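 DNA-binding domains from P. falciparum, fused to GST and produced in E. coli, were put on an Agilent 4 × 180k double-stranded probe array for 1 h in 1× PBS holding 1% milk, 0.2 mg/ml BSA, 0.5% salmon testes DNA and 0.03% Triton X-100. Probes were primer-extended, 36 bp long and drawn from intergenic genomic regions, with negative controls included. After Alexa488 anti-GST antibody detection and a 488 nm scan, binding intensity was set as the highest Masliner-normalised natural-log median intensity across replicate spots of either probe orientation.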
With ATATATATATATGTAGTGCATTTTATATATAATATT, the “gcPBM binding intensity (ln)” value turned out to be 10.1 ± 0.16.

Take “TTTTTTATTTTTTGTTATATTTATAATAATTTATGA [XGTACX_negctrl_site260]”: the “gcPBM binding intensity (ln)” value came to 9.58 ± 0.071.

Take “TTCAAAAAAGGAAAGTTGCACTTGATACGCTTATTA [GTGCAC_site9411]”: the “gcPBM binding intensity (ln)” value was determined as 10.3 ± 0.25.

For the sequence “TACAGATATTTTATTTCACACATTTTATCATTTTCT [CACACA_site5701]”, the “gcPBM binding intensity (ln)” value was determined as 9.87 ± 0.18.

On to “TATATATTGTTATAATGTACATAATATTTTATCTGC [XGTACX_site4983]”, for which the “gcPBM binding intensity (ln)” value was found to be 10.9 ± 0.45. On to “AGAATAATTTTATCGGTACACACTGTATGCATAATA [CACACA_site374]”, for which the “gcPBM binding intensity (ln)” value was 11 ± 0.71. For the sequence “ATGCAAAATAAAGAAGCACACAAAAATGAAATATAT [CACACA_site9217]”, the “gcPBM binding intensity (ln)” value was 10.06 ± 0.042. On to “GGAAATTTCAATATTTGTACATATATATATATATAT [XGTACX_site3222]”, for which the “gcPBM binding intensity (ln)” value came out at 10.8 ± 0.65. Turning to “AAGAAATAAATACATACACACATATATATATATATA [CACACA_site3362]”, the “gcPBM binding intensity (ln)” value was determined as 10.1 ± 0.39. For the sequence “ATAAGTAATATAATATGTACATATATATATATATAT [XGTACX_site3818]”, the “gcPBM binding intensity (ln)” value was 11.2 ± 0.5. The figure for “TTTGTCTGCATACGCACACACGTGTACCATCTTATG [CACACA_site4784]” is 11.2 ± 0.75; for “TATTAATATATATGTTGTACAAGTTTTTTTTTTTTT [XGTACX_site5865]” it is 11.3 ± 0.66; for “GATAAAATATGTTGCCGTACATATTCATATACTTAA [XGTACX_site4776]” it is 11 ± 0.62. On to “ATTTTTTTTTCTTAATGTACATACCAAAAAGAAAGA [XGTACX_site5471]”, for which the “gcPBM binding intensity (ln)” value is 11.2 ± 0.69. With “TATAATATATTTTAATGTACGTACATCCCGATTAAT [XGTACX_site7651]”, the “gcPBM binding intensity (ln)” value stood at 11.7 ± 0.86.

In the case of “TTCTATATTTCTTTTTGTACATATAAATTCAAATAA [XGTACX_site2476]”, the “gcPBM binding intensity (ln)” value came to 11.3 ± 0.92. “ATATAAAATAATACATGTACATATTATATATATATA [XGTACX_site1082]”: the “gcPBM binding intensity (ln)” value was 11.1 ± 0.49. As to “TATATACGCATTTTTATACACACTTGTTTTATAAAA [CACACA_site727]”, the “gcPBM binding intensity (ln)” value amounted to 10.4 ± 0.33. Consider “TATTTATATTCATAATGTACATTCAATTATTGTTTT [XGTACX_site4191]”, for which the “gcPBM binding intensity (ln)” value turned out to be 10.8 ± 0.38. As for “TATTTTGAAAATAAAAGTACAAATTTTATATTTAAA [XGTACX_site3238]”, the “gcPBM binding intensity (ln)” value came out at 11.1 ± 0.83. The figure for “AAATATTAAATGACAAAAAAAAAAAAAAAAGGGGTT [CACACA_negctrl_site951]” is 9.64 ± 0.099; for “TTCTTTATTTTTTCTACACACATTATATATTCAAAG [CACACA_site5866]” it is 10.12 ± 0.099; for “AAGACCATATGAATAATGCACACGTTTTAAAATATT [CACACA_site2323]” it is 10.2 ± 0.11. In the case of “CACACGCACGGACACACACACAAAAAAAAAAAGAAA [CACACA_site6378]”, the “gcPBM binding intensity (ln)” value was 11.2 ± 0.98. On to “TTTCCATTTTCTCTATGTACATAAAAATGAGATAAA [XGTACX_site5689]”, for which the “gcPBM binding intensity (ln)” value turned out to be 11.3 ± 0.84. For “GTTTGGTGGTGTTTTGGTACGTACGGGGGTGTATGT [XGTACX_site1211]”, the “gcPBM binding intensity (ln)” value worked out at 11.7 ± 0.85. Consider “AGGACTAATATTTGAACACACATATAATAAATACAT [CACACA_site6068]”, for which the “gcPBM binding intensity (ln)” value stood at 10.04 ± 0.021. The figure for “TCTTTGTACTTTCACATGTACACCCAAATGGAAATT [CACACA_negctrl_site1442]” is 11.8 ± 0.87; for “AAATAAATCTTATGCACACAAATAATTAATGAAACA [CACACA_site5011]” it is 10.1 ± 0.14. In the case of “ATATTTATGGAATATACACACATGTATAATTACATA [CACACA_site7045]”, the “gcPBM binding intensity (ln)” value is 9.98 ± 0.13. For “TTCAAACATATTAATTGTACATACAACAAAACCATG [XGTACX_site5149]”, the “gcPBM binding intensity (ln)” value turned out to be 11.2 ± 0.49.

As to “AATATATTTTAGAGTTTTATATATTTTATGCATATA [GTGCAC_negctrl_site710]”, the “gcPBM binding intensity (ln)” value came to 9.72 ± 0.18.

“ATATTATTTTATGCTACACACATTTTCTCTTATAAA [CACACA_site943]”: the “gcPBM binding intensity (ln)” value was 10.02 ± 0.035.

With “TGGAAAATAAAGTACGCACACAAAAATTCTCTTCAT [CACACA_site2327]”, the “gcPBM binding intensity (ln)” value stood at 11.5 ± 0.77. For the sequence “AAAAAAAAAAAACACACACACACATTCAATATAAAA [CACACA_site40]”, the “gcPBM binding intensity (ln)” value came to 9.93 ± 0.12. As for “ATATGTATTTATGTATTTATGTATTTTTATATTTTT [CACACA_negctrl_site595]”, the “gcPBM binding intensity (ln)” value came to 9.925 ± 0.035. As for “TTTGACTAAATTAAATATTAAAGTATGGATTATTCT [CACACA_negctrl_site833]”, the “gcPBM binding intensity (ln)” value is 9.77 ± 0.11. As for “ACCCATTTGATAATAATGCACACCACATATATTTAT [CACACA_site3061]”, the “gcPBM binding intensity (ln)” value turned out to be 10.07 ± 0.042. The figure for “TGCAAGGAACAACACACACACACATAAATGTATATA [CACACA_site8149]” is 10.1 ± 0.17; for “ATATATAATATATACACACACATGTATATATAAATA [CACACA_site1968]” it is 9.87 ± 0.16; for “GGAATTTTTATTCGAAGTACTGTTGTGAGTAATAAA [XGTACX_site8599]” it is 10.9 ± 0.57.

For the sequence “TAAATGTTAAAATTCACACAAATATGTGCGGAATAT [CACACA_site5055]”, the “gcPBM binding intensity (ln)” value is 9.96 ± 0.15. With “ATTGATTTTTAATATACACACATAAGGACCACAAAA [CACACA_site4344]”, the “gcPBM binding intensity (ln)” value worked out at 11.3 ± 0.67. The figure for “AGAGAATATTTCCACACATGCAAATGTTATATGTAA [TGCATGCA_site282]” is 10 ± 0.085.
